Experimental data published in patent US20140057977A1, “Induction of Arteriogenesis” (G. Pohl-Boskamp GmbH & Co. KG, priority 2012, published 2014).

Test system: collateral arteries
Assay: Coronary microvascular imaging with micro-CT: collateral diameters in the ROI

SMILES	Collateral diameters of ROI (5 DAYS RIP) [μm]	Collateral diameters of ROI (5 DAYS SHAM) [μm]	collateral diameters compared to controls (in words) (5 DAYS RIP, listed as PBS and ASS)	Collateral diameters of ROI (5 DAYS RIP, listed as PBS+ASA) [μm]
O=[N+]([O-])OCC(CO[N+](=O)[O-])O[N+](=O)[O-] [NTG, nitroglycerin]	158.4±9.2	86.8±9.0	–	–
CC(=O)Oc1ccccc1C(=O)O [ASA+PBS, acetyl salicylic acid]	–	–	significantly smaller	102.5±8.0
